Experimental data published in PubChem BioAssay AID1963438 (Molecular Pharmacology Branch, DTP, NCI, 2024).
A number of entries come with more than one value. The other results are left out here. An entry can have further records. Values given together are repeated measurements in other runs, samples, wells, individuals or studies. Additions like (4×) say how often a value occurs here. A date in brackets names the month of the test.

System: NCI-H510 multicellular tumor spheroid growth, % test/control
Assay: Anticancer human tumor NCI-H510 cell line growth inhibition [Asc];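 note: spheroids exposed to agents for 7 days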;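 for viability, T/C: 100% = DMSO vehicle control wells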
Conditions: for viability, T/C: stronger effect = lower value
Procedure: Multicellular complex tumor spheroid response to apoptosis pathway targeting inhibitors Alrizomadlin, Pelcitoclax, and Dasminapant in combination with a variety of drugs and investigational agents in selected tumor cell lines
The MDM2 inhibitor alrizomadlin, the Bcl-2/Bcl-xL inhibitor pelcitoclax, and the IAPs inhibitor dasminapant were evaluated both individually and in combination with standard of care and investigational anticancer small molecules within a complex spheroid model of solid tumors. . Complex spheroids include a stromal component modeled by human endothelial cells (HUVEC) and fibroblasts modeled by human mesenchymal stem cells (MSCs). The concentration ranges selected for each drug and investigational agent were based upon clinically achievable concentrations if the clinical Cmax of the agent was known.
Compounds. The drugs and investigational agents: alrizomadlin (APG-115; NSC831270), pelcitoclax (APG-1252; NSC835773), dasminapant (APG-1387;NSC834197), TAK-243 (NSC785004), copanlisib (NSC809693), olaparib (NSC753686), talazoparib (NSC767125), cobimetinib (NSC 768068), eltanexor (KPT-8602, NSC 794443), abemaciclib (NSC 768073), sotorasib (NSC818433), adagrasib (NSC 831453), MRTX-1133 (NSC 836407), Iadademestat (ORY1001, NSC 806812), and RMC-4630 (NSC839698), were obtained from the NCI Developmental Therapeutics Program Chemical Repository. The FDA-approved anticancer drug set is available from the Developmental Therapeutics Program at https://dtp.cancer.gov/organization/dscb/obtaining/available plates.htm. […] The stock solutions were prepared in dimethyl sulfoxide (DMSO, Sigma-Aldrich, St. Louis, MO, cat. D2650) at 800-fold the tested concentration and stored at -70 degrees C prior to their use. All drugs and investigational agents were tested over a range starting from a high concentration at or near the clinical Cmax and decreasing in half-log increments. If the clinical Cmax for an agent had not been determined, the highest concentration tested was 10 microM.
The patient-derived cancer (PDC) cell lines include five colon adenocarcinomas: 186277-243-T-J2-PDC, 616215-338-R-J1-PDC, 439559-082-T-J2-PDC, 463943-066-T-J2-PDC, and 519858-162-T-J1-PDC; three pancreatic carcinomas: 323965-272-R-J2-PDC, 521955-158-R6-J3-PDC, and 521955-158-R2-J5-PDC; two uterine sarcomas: 327498-152-R-J2-PDC and 993429-296-R-J1-PDC; two rhabdomyosarcomas: 755483-174-R-J1-PDC and 772245-204-R-J1-PDC; two soft tissue sarcomas: 126254-015-R-J1-PDC and 494315-158-R-J1-PDC; two malignant fibrous histiocytomas: 317291-083-R-J1-PDC and 596521-263-R-J1-PDC; two breast carcinomas: 171881-019-R-J1-PDC and 885512-296-R-J2-PDC; and one ovarian carcinoma: 6556581-035-R-J-PDC were obtained from the NCI PDMR, (https://pdmr.cancer.gov). The established cell lines HSSY-2 synovial sarcoma (RRID:CVCL 8719), SYO-1 synovial sarcoma (RRID:CVCL_7146), MPNST malignant peripheral neural sheath tumor were obtained from the Sloan Kettering Institute. The following established cell lines were purchased from the American Type Culture Collection (ATCC, Manassas, VA), Sor the received from the NCI repository:, PANC-1 pancreatic carcinoma (CRL-1469, RRID:CVCL_0480), OVCAR-5 ovarian carcinoma (RRID:CVCL_1628), OVCAR-8 ovarian carcinoma (RRID:CVCL_1629), , MCF-7 breast carcinoma (CRL-12584, RRID:CVCL_0031), MDA-MB-231 breast carcinoma (CRL-12532, RRID:CVCL_0062), NCI-H1876 small cell lung carcinoma (CRL-5902, RRID:CVCL_1503), NCI-H510A small cell lung carcinoma (HTB-184, RRID:CVCL_1565), NCI-H1417 (CRL-5869, RRID:CVCL_1469), and NCI-H196 small cell lung carcinoma (CRL-5823, RRID:CVCL_1509). Dr. Peter Houghton (Greehey Children's Cancer Research Institute, University of Texas Health Science Center, San Antonio, TX) provided Rh-18 rhabdomyosarcoma (RRID:CVCL_1659). Pooled donor human umbilical vein endothelial cells (HUVEC, Lonza, cat. CC-2519) and human mesenchymal stem cells (hMSC, Lonza, cat. PT-2501) were purchased from Lonza (Walkersville, MD).
Cell Culture. […]

CCN1C(C(=O)NC23CCC(C(=O)O)(CC2)CC3)C(c2cccc(Cl)c2F)C2(C(=O)Nc3cc(Cl)ccc32)C12CCCCC2 (stereo not drawn)
viability, T/C (compound alone 0.03 µM): 83.3, 102 (2×), 118, 107 (2×), 130, 67.2, 105, 97.1, 103 (2×), 98, 97.5, 111%
viability, T/C (compound alone 0.0949 µM): 82.4, 101, 105, 90.6, 118, 117, 74.2, 89, 104, 96.7, 91.7, 82.9, 99.3, 107, 99%
viability, T/C (compound alone 0.3 µM): 90, 89.7, 125, 102 (2×), 103, 100, 68, 101, 84, 107, 104 (2×), 113, 99.5%
viability, T/C (compound alone 0.949 µM): 107 (4×), 128, 102, 88, 91.4, 97.3, 117 (2×), 108, 90.6, 101, 105%
viability, T/C (compound alone 3 µM): 88.2, 89.9, 138, 102, 84.5, 96.3, 95.8, 86.5, 103, 88.3, 99.2, 111, 86.9, 97.3, 91.9%

O=C(c1cc(Cc2n[nH]c(=O)c3ccccc23)ccc1F)N1CCN(C(=O)C2CC2)CC1
viability, T/C (compound alone 10 µM): 14.3%, 9.93%, 54.7%

Cn1ncnc1[C@H]1c2n[nH]c(=O)c3cc(F)cc(c23)N[C@@H]1c1ccc(F)cc1
IC50 (compound alone): 6.25 nM, 5.86 nM, > 100 nM

CNC(C)C(=O)NC1CN(S(=O)(=O)c2cccc(S(=O)(=O)N3CCC4CCC(C(=O)NC(c5ccccc5)c5ccccc5)N4C(=O)C(NC(=O)C(C)NC)C3)c2)CCC2CCC(C(=O)NC(c3ccccc3)c3ccccc3)N2C1=O (stereo not drawn)
viability, T/C (compound alone 0.316 µM): 69.8, 98.5, 88.6, 96.6, 102 (2×), 97.2, 107, 117, 124, 90.7, 105, 110% [2022-10] and 108% [2022-11]
viability, T/C (compound alone 1 µM): 104, 88.7, 102 (2×), 98, 119, 98.8, 109, 111 (2×), 98.1, 112% [2022-10] and 103% [2022-11]

Cc1c(S(C)(=O)=O)c(-c2cc(F)cc(N3CCN(c4ccc(NS(=O)(=O)c5ccc(NC(CCN6CCC(C(=O)OCCCP(=O)(O)O)CC6)CSc6ccccc6)c(S(=O)(=O)C(F)(F)F)c5)cc4)CC3)c2)c(-c2ccc(Cl)cc2)n1C(C)C (stereo not drawn)
viability, T/C (compound alone 0.1 µM): 111, 79.9, 65.2, 83.3 (2×), 88.4, 91.9, 79.6, 98.5, 97.8, 85, 106, 80.4, 123%
viability, T/C (compound alone 0.316 µM): 97.1, 92.2, 103 (2×), 81, 87.4, 85, 122, 95.9, 85.3, 93.4, 95.8, 74.8, 105%
viability, T/C (compound alone 3.16 µM): 106, 68.7, 90.4, 77.5, 85.4, 91.8, 115, 76.4, 92.1, 95.6, 78.2, 94.7, 107, 101%
viability, T/C (compound alone 10 µM): 70.8, 97, 83.2 (2×), 87.8, 77.3, 68.8, 89, 89.8, 84.3, 81.8, 102, 72.5, 128%
